Results on 42 sequences are retold here after paper PMC7819943, “Rice protein-binding microarrays: a tool to detect cis-acting elements near promoter regions in rice”.

The list shows a part of the results.

This assay concerns the target T1, OsWOX13 (Oryza sativa, UniProt Q5QMM3 1-267).
T1 sequence: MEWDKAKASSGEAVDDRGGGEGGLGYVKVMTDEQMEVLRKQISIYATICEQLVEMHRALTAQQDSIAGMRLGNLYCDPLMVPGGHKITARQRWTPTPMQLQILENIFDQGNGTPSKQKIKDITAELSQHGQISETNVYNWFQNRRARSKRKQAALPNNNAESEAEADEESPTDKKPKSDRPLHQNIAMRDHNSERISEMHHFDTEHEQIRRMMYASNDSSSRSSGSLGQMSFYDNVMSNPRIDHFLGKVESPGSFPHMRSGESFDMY
In words: protein-binding microarray (RPBM); PBS, 2% BSA, 51.3 ng/ul salmon testes DNA, 50 uM zinc acetate, 200 nM TF, 25 C, 1 h; high values mean tight binding. Conditions: protein: recombinant; tags: N-terminal polyhistidine and DsRed monomer fusion (pET32a); label: CyDye5-dUTP incorporated in the synthesized complementary strand; 3' TTTTT single-stranded linker to array surface; dsDNA, one strand shown. An outline of the steps: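 Transcription factors, each fused N-terminally to a polyhistidine tag and DsRed, were expressed in E. coli BL21-CodonPlus and purified on Ni–NTA. A custom Agilent array was made double-stranded by primer extension with Cy5-dUTP and blocked with 2% BSA. It was incubated with 200 nM protein in PBS, 2% BSA, salmon testes DNA and 50 µM zinc acetate at 25 °C for 1 h, then washed. The binding signal is per-feature fluorescence intensity (arbitrary units) read on an Axon 4000B scanner.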
For “TCTGTTCAGTTGTAATTGGCAACTTTACTCGTCTTATTGCCGGAGTCACCTAGTGCAG”, the binding signal was 4000 fluorescence intensity (a.u.).

As for “TCAAATCGATGGAGTAAATTAACGATATTGTCTATGCATACGGAGTCACCTAGTGCAG”, the binding signal is 3260 fluorescence intensity (a.u.).

For the sequence “ATCCAAATTAATTGTTTTAAAATAGTTTTAAGAAGGATCTCGGAGTCACCTAGTGCAG”, the binding signal is 35900 fluorescence intensity (a.u.).

Turning to “TAGCTTAATTCAATCATTATTGGTTCGTTACATTCTAGCTCGGAGTCACCTAGTGCAG”, the binding signal was 18600 fluorescence intensity (a.u.).

Take “CACTTCGGATTGTCAATCGAGCCATTATCCTCTTCCTCTCCGGAGTCACCTAGTGCAG”: the binding signal is 11800 fluorescence intensity (a.u.).

For “GGTGATTAGACCGGTGATCTATACCGGTCAGACCGATAGCCGGAGTCACCTAGTGCAG”, the binding signal was 47800 fluorescence intensity (a.u.).

Consider “CGATAAATGATAGAATTGCAAAAGCTAAACGAACTTTCGACGGAGTCACCTAGTGCAG”, for which the binding signal is 9010 fluorescence intensity (a.u.).

Take “CTGGTTAAATTTACACTAGATCTTTAGTTCCGTAATTTGTCGGAGTCACCTAGTGCAG”: the binding signal is 9470 fluorescence intensity (a.u.).

Take “ACATGACATGTAATTAGAAAGACTCTATGGCTAACATTCACGGAGTCACCTAGTGCAG”: the binding signal is 8360 fluorescence intensity (a.u.).

On to “TAAAACTGTAATCAAACAGTAAATAACAGAATATCTAGTACGGAGTCACCTAGTGCAG”, for which the binding signal was 9920 fluorescence intensity (a.u.).

As to “ATTGATAACGGCAGACTAACTGATACGACAGAGATGGTCACGGAGTCACCTAGTGCAG”, the binding signal is 7620 fluorescence intensity (a.u.).

In the case of “TGCTTTAATTTATTTACCTTACATTTTGCTACTCACATAACGGAGTCACCTAGTGCAG”, the binding signal is 7000 fluorescence intensity (a.u.).

Take “AATAATTCATCAATTAATTTACCTTATATTTCATACTTATCGGAGTCACCTAGTGCAG”: the binding signal is 28800 fluorescence intensity (a.u.).

As to “TTATTGTCTGATTGTCTGGAGATAGGCTTGCTGGTCATGGCGGAGTCACCTAGTGCAG”, the binding signal is 23600 fluorescence intensity (a.u.).

With “TATATAGTTCAATCAAACTCGGATAGAGAAATGACCAAAACGGAGTCACCTAGTGCAG”, the binding signal was 5400 fluorescence intensity (a.u.).

As to “CCATTAGATTGGAAGGGGAAACTATTTCGATCCCTCGAGGCGGAGTCACCTAGTGCAG”, the binding signal is 33800 fluorescence intensity (a.u.).

For the sequence “AATTAATTAACAAAGGTTAACTTTCACATCATCTAATCCTCGGAGTCACCTAGTGCAG”, the binding signal was 28600 fluorescence intensity (a.u.).

Consider “GCCCGTGACAGGAGAGGATAAGGTTGCCAGCGTGTGGGGTCGGAGTCACCTAGTGCAG”, for which the binding signal is 4240 fluorescence intensity (a.u.).

Take “TTAGATGATAAAATATGATTAATACTTTATGCGTGACTTACGGAGTCACCTAGTGCAG”: the binding signal was 8210 fluorescence intensity (a.u.).

For the sequence “ATGATGTAATATAATTAGCTGATCTCAGCTCACTCCCAGGCGGAGTCACCTAGTGCAG”, the binding signal was 21400 fluorescence intensity (a.u.).

As to “GACCTCAAAATTTTGATAATTTGAGTTGAGAGGGAGAGGACGGAGTCACCTAGTGCAG”, the binding signal is 8100 fluorescence intensity (a.u.).

For the sequence “CTTAACTTTAAATATATAATTTTATAATAATTTTACGTTGCGGAGTCACCTAGTGCAG”, the binding signal is 17500 fluorescence intensity (a.u.).

Take “ACACCATGCATTTAATTGGTGATAAAATCACATCCTTATCCGGAGTCACCTAGTGCAG”: the binding signal is 5680 fluorescence intensity (a.u.).

Take “CATGATAGATCAATCTCTTTCTTTTGTTATCCAGCAGTACCGGAGTCACCTAGTGCAG”: the binding signal is 32600 fluorescence intensity (a.u.).

As to “ACAAAACTATAAATTTAGCGGTAAATTTACTATAAAACTACGGAGTCACCTAGTGCAG”, the binding signal was 12000 fluorescence intensity (a.u.).

Regarding “AAAATATATTAATTTTAATCAATTATTATTTTGGTAGTTTCGGAGTCACCTAGTGCAG”, the binding signal is 28400 fluorescence intensity (a.u.).

Consider “GTATATAAATTAGCTCAACCAAAGGATCAGTTTAACGCGCCGGAGTCACCTAGTGCAG”, for which the binding signal was 5250 fluorescence intensity (a.u.).

With “TATAAATAATGGACAACTAGTTTCTGAGCTTTTAGTGGTTCGGAGTCACCTAGTGCAG”, the binding signal is 6110 fluorescence intensity (a.u.).

For “GAAGATAATTTTACCGGTACTCTGGTACGTCATCCGTGTACGGAGTCACCTAGTGCAG”, the binding signal was 5360 fluorescence intensity (a.u.).

On to “CACTTCTCTGATTATTGTTGTTGTTCTTCCCGTGCTGATTCGGAGTCACCTAGTGCAG”, for which the binding signal is 10600 fluorescence intensity (a.u.).

With “TCAAATTTATGGTATATTTACCAAATTTTGGTAAGAAACCCGGAGTCACCTAGTGCAG”, the binding signal is 4110 fluorescence intensity (a.u.).

Regarding “GACATGGCAATTAACGATTTGCCACACCCTGTCAATGACACGGAGTCACCTAGTGCAG”, the binding signal was 6380 fluorescence intensity (a.u.).

Turning to “TATAATTTTGTCATAAATAAAATATTTTAAGCAATATCGTCGGAGTCACCTAGTGCAG”, the binding signal was 15900 fluorescence intensity (a.u.).

Turning to “GGCTAGATTGTTATGCAGGCCCCACTGCGCACCGCTTCCTCGGAGTCACCTAGTGCAG”, the binding signal was 7150 fluorescence intensity (a.u.).

In the case of “TTTGCGAAAATGAAGGGTGGTGATTGGTGAAGATTCCTAGCGGAGTCACCTAGTGCAG”, the binding signal is 7840 fluorescence intensity (a.u.).

For “ACTACGTTCCCAATCACGAGCCCCGTTCCGGATTTCGCTCCGGAGTCACCTAGTGCAG”, the binding signal is 4930 fluorescence intensity (a.u.).

On to “CCCAAATGACTATGTCATATCAATGAGGATGTGAATCAAACGGAGTCACCTAGTGCAG”, for which the binding signal is 3260 fluorescence intensity (a.u.).

Turning to “AACAAATTAATTAGATAAGATATAGGCTGAGTTTGTTAGGCGGAGTCACCTAGTGCAG”, the binding signal is 47500 fluorescence intensity (a.u.).

“CACTCTCTCTCGCTGTCTTTCTCTCCTTCCATTTCATTTCCGGAGTCACCTAGTGCAG”: the binding signal was 4800 fluorescence intensity (a.u.).

Take “CAAACTGATTTCTCTACCATCTAGTTTTACTTTGCAGAATCGGAGTCACCTAGTGCAG”: the binding signal is 11100 fluorescence intensity (a.u.).

Turning to “GGAAGCTAATTATAATCCGACTTAACACCTCTACACGTCACGGAGTCACCTAGTGCAG”, the binding signal was 13900 fluorescence intensity (a.u.).

In the case of “CACATTAATTAGGTTAATGTACTACTACATCCATTCTAAACGGAGTCACCTAGTGCAG”, the binding signal is 16900 fluorescence intensity (a.u.).
